Measured values published in PubChem BioAssay AID485313 (National Center for Advancing Translational Sciences (NCATS), 2010).
The campaign covered roughly 320,000 compounds. About 7,600 (2.4%) were called active. Inconclusive results, whose numbers are uncertain, are shown with a selection of clear calls. Calls come from the whole dose curve; as a rule, active = well fitted activation curve with a large enough effect; inconclusive = small, poorly fitted or top-dose-only effect; inactive = no such curve, though single readings can be large or run the other way. Potencies of inconclusive entries are left out as doubtful fits.
Potency is the fitted concentration of half-maximal effect; tags give direction and shape of the fitted curve.

Test: qHTS Assay for NPC1 Promoter Activators; note: nearly all actives have a fitted effect of over 60% in size;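 for activation: reporter is driven by a mutant NPC1 promoter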
Settings: Huh7 NPC1 promoter luciferase reporter, 24 h; series mostly up to 9.22 µM
Outline: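 Stable NPC1-promoter luciferase Huh7 line; cpd (DMSO) 24 h, 37 °C, 5% CO2; Amplite luciferase reagent 10 min RT; luminescence readout. qHTS format.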
For `O=C(N/N=C/c1ccc2c(c1)OCO2)c1ccc(Br)o1`, the Potency was active: 4.47 µM. For `Cc1c(C(=O)O)cnc2cc(-c3ccc(Cl)cc3)nn12`, the Potency was inconclusive [activator, partial curve]. In the case of `N#CCCN1CCN(C(=S)c2ccc(-c3cccc(Cl)c3)o2)CC1`, the Potency is reported as “inactive”. For `COc1ccccc1-c1n[nH]c(=S)n1N`, the Potency was “inactive”. With `CC1CCc2nc3sc4c(c3c(N)c2C1)CCCC4` (centres undefined) the Potency was inconclusive [activator, partial curve]. With `O=C(NCCS(=O)(=O)NC1CCCCC1)c1ccc2c(c1)OCO2` the Potency was “inactive”. For `CCS(=O)(=O)NCCc1csc(-c2ccccc2)n1`, the Potency was “inactive”. With `O=C(NCc1cccnc1)C(=O)NCC1OCCCN1S(=O)(=O)c1ccc(F)cc1` (centres undefined) the Potency was “inactive”. With `Cc1ccc(C(=O)NNC(=O)c2ccco2)cc1` the Potency was inconclusive [activator, partial curve]. In the case of `COc1ccc(CNC(=O)C(=O)NCC2CCCN2S(=O)(=O)c2ccccc2)cc1` (centres undefined), the Potency is reported as “inactive”. For `CN1CCN(CCCCOc2ccccc2C=O)CC1`, the Potency was “inactive”. For `CCC1Oc2ccccc2C(=O)N(CC(=O)c2ccc3c(c2)OCCO3)C1=O` (centres undefined), the Potency was inconclusive [activator, single point]. In the case of `Cc1ccccc1-c1cc2c(nn1)-c1ccccc1C2=O`, the Potency is reported as active: 3.16 µM. In the case of `COCCN(Cc1nc(C(c2ccccc2)c2ccccc2)no1)C(C)C`, the Potency is reported as “inactive”. For `O=C(Nc1cc(C(F)(F)F)ccc1-n1cncn1)c1ccc(F)cc1Cl`, the Potency was “inactive”. In the case of `O=C(Nc1nc2c(s1)CCCC2)C1COc2ccccc2O1` (centres undefined), the Potency is reported as active: 0.562 µM. With `O=C(Nc1ccc(Br)cc1Cl)NC1CC1` the Potency was “inactive”. In the case of `CCN1CCN(c2ccc(NC(=O)c3ccco3)cc2Cl)CC1`, the Potency is reported as inconclusive [activator, partial curve]. With `O=C(Nc1cccc([N+](=O)[O-])c1)c1cnccn1` the Potency was “inactive”. In the case of `CN(CC(=O)Nc1cccc(S(=O)(=O)NC2=NCCC2)c1)Cc1ccccc1Cl`, the Potency is reported as “inactive”. With `CC(=O)Nc1ccc(C(=O)COC(=O)C2CC2)c(F)c1` the Potency was inconclusive [activator, partial curve]. With `Cc1ccc(C(=O)/C=C/Nc2ccc3c(c2)OCO3)cc1` the Potency was active: 0.708 µM. With `CCSc1nnc(NC(=O)c2cccs2)s1` the Potency was inconclusive [activator, partial curve]. For `C=CCSc1nnc2c(n1)[nH]c1c(C)cccc12`, the Potency was active: 3.55 µM. In the case of `CC(C)(C)n1ncc2c(=O)n(CC(=O)c3ccccc3)cnc21`, the Potency is reported as inconclusive [activator, partial curve]. For `Cc1noc(NC(=O)c2ccccc2)c1C#N`, the Potency was “inactive”. For `COc1ccc(-c2cc3ccc(O)cc3oc2=O)cc1`, the Potency was active: 1.26 µM. With `CCOc1ccc(NC(=O)c2cnc3scc(C)n3c2=O)cc1` the Potency was inconclusive [activator, partial curve]. With `O=C(NCc1ccc(OC(F)(F)F)cc1)C1CCC(=O)N(C2CC2)C1` (centres undefined) the Potency was “inactive”. In the case of `COC(=O)c1sccc1N/N=C/c1ccc(OC)c(OC)c1OC`, the Potency is reported as inconclusive [activator, single point]. For `O=C(CCCN1C(=O)S/C(=C\C=C\c2ccccc2)C1=O)Nc1ccc(O)cc1`, the Potency was inconclusive [activator, single point]. In the case of `Cn1ccnc1SCC(=O)c1c[nH]c2ccccc12`, the Potency is reported as active: 3.98 µM. With `O=C(NCc1ccccc1Br)C1CCCO1` (centres undefined) the Potency was “inactive”. For `COc1cc(/C=N/N(C)c2ccccc2)ccc1O`, the Potency was inconclusive [activator, single point]. In the case of `Cc1ccc(C(=O)Oc2ccc(/C=C3\C(=N)N4N=C(N5CCOCC5)SC4=NC3=O)cc2)cc1`, the Potency is reported as inconclusive [activator, partial curve]. With `CCCCCOC(=O)c1ccc(OC(=O)c2cncc(Br)c2)cc1` the Potency was “inactive”. For `CCOC(=O)Nc1ccc2c(COC(=O)c3ccccc3O)cc(=O)oc2c1`, the Potency was inconclusive [activator, single point]. For `C/C(=N\NC(=O)c1ccc2c(c1)OCO2)c1ccco1`, the Potency was inconclusive [activator, partial curve]. For `O=C(Nc1ccc(Nc2ccccc2)cc1)c1cccc(F)c1`, the Potency was inconclusive [activator, partial curve]. With `N#Cc1c(N)nc(N)nc1Nc1ccc(Br)cc1` the Potency was active: 1.26 µM. With `Cc1ccc(-c2noc(/C=C/c3ccccc3)n2)cc1` the Potency was inconclusive [activator, single point]. For `Cc1nnc(NC(=O)c2ccc3c(c2)OCO3)s1`, the Potency was inconclusive [activator, partial curve]. For `O=C(NC(=S)Nc1ccc2[nH]ncc2c1)c1ccccc1`, the Potency was inconclusive [activator, single point]. With `O=C(CC(=O)c1cc(Cl)ccc1O)c1ccccc1` the Potency was inconclusive [activator, single point]. With `COc1ccccc1NS(=O)(=O)c1cccc(NC(=O)c2cc3ccccc3oc2=O)c1` the Potency was active: 2.51 µM. In the case of `COc1ccc(C(=O)Cc2cnn(-c3ccccc3)c2)c(O)c1`, the Potency is reported as active: 2.51 µM. With `OC(CN1C2=NCCCN2c2ccccc21)c1ccc(Cl)cc1` (centres undefined) the Potency was “inactive”. In the case of `CCN1C(=O)/C(=C2\SC(N3CCCCC3)=NC2=O)c2ccccc21`, the Potency is reported as inconclusive [activator, single point]. With `c1coc(CNc2nc(-c3ccncc3)cs2)c1` the Potency was “inactive”. With `Cc1ccccc1Cn1nnc(C(=O)Nc2ccc3c(c2)OCCO3)c1N` the Potency was active: 2.82 µM. In the case of `CCN(CC)S(=O)(=O)c1ccc(NC(=O)c2ccccn2)cc1`, the Potency is reported as inconclusive [activator, partial curve]. In the case of `CCC(CC)c1nnc(NC(=O)c2ccc3c(c2)OCO3)s1`, the Potency is reported as inconclusive [activator, partial curve]. In the case of `CCOc1ccc(N(C(C)C(=O)N/N=C(\C)c2cccc(NC(=O)c3ccccc3)c2)S(C)(=O)=O)cc1` (centres undefined), the Potency is reported as “inactive”. In the case of `Cc1sc2ncn(CC(=O)NCCCN3CC(C)CC(C)C3)c(=O)c2c1S(=O)(=O)N1CC(C)CC(C)C1` (centres undefined), the Potency is reported as “inactive”.
